Test results taken from the supplement of paper PMC8728848.
This is one part of the list.

How the values were obtained:
Assay in all cases: glycan array binding signal (z-score within array); higher = stronger binding
Details in all cases: glycan notation: IUPAC condensed, linker removed
[1] = molecular target: Neu5Ac(a2-8)Neu5Ac
Summary of the method: (§1)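 Glycan array binding is given as a within-array Z-score, which can be read as non-binding when negative. The arrays, 3228 of them, came from the Consortium for Functional Glycomics database and were retained only where the protein sequence was available. Z-scores were averaged across arrays of the same protein sequence at different concentrations or buffers and across linkers.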

[2] = molecular target: Neu5Ac(a2-8)Neu5Ac(a2-3)Gal(b1-3)GalNAc(b1-4)[Neu5Ac(a2-3)]Gal(b1-4)Glc
Summary of the method: as §1

[3] = molecular target: Neu5Ac(a2-8)Neu5Ac(a2-3)Gal(b1-3)GalNAc(b1-4)[Neu5Ac(a2-8)Neu5Ac(a2-3)]Gal(b1-4)Glc
Summary of the method: as §1

[4] = molecular target: Neu5Ac(a2-8)Neu5Ac(a2-3)Gal(b1-4)Glc
Summary of the method: as §1

[5] = molecular target: Neu5Ac(a2-8)Neu5Ac(a2-3)Gal(b1-4)GlcNAc
Summary of the method: as §1

[6] = molecular target: Neu5Ac(a2-8)Neu5Ac(a2-3)[Gal(b1-3)GalNAc(b1-4)]Gal(b1-4)Glc
Summary of the method: as §1

[7] = molecular target: Neu5Ac(a2-8)Neu5Ac(a2-3)[GalNAc(b1-4)]Gal(b1-4)Glc
Summary of the method: as §1

[8] = molecular target: Neu5Ac(a2-8)Neu5Ac(a2-8)Neu5Ac
Summary of the method: as §1

[9] = molecular target: Neu5Ac(a2-8)Neu5Ac(a2-8)Neu5Ac(a2-3)Gal(b1-4)Glc
Summary of the method: as §1

[10] = molecular target: Neu5Ac(a2-8)Neu5Ac(a2-8)Neu5Ac(a2-3)[Gal(b1-3)GalNAc(b1-4)]Gal(b1-4)Glc
Summary of the method: as §1

[11] = molecular target: Neu5Ac(a2-8)Neu5Ac(a2-8)Neu5Ac(a2-3)[GalNAc(b1-4)]Gal(b1-4)Glc
Summary of the method: as §1

[12] = molecular target: Neu5Ac(a2-8)Neu5Ac(a2-8)Neu5Ac(a2-8)Neu5Ac(a2-3)[GalNAc(b1-4)]Gal(b1-4)Glc
Summary of the method: as §1

[13] = molecular target: Neu5Ac(a2-8)Neu5Gc(a2-3)Gal(b1-4)GlcNAc
Summary of the method: as §1

[14] = molecular target: Neu5Ac(b2-6)Gal(b1-4)GlcNAc
Summary of the method: as §1

[15] = molecular target: Neu5Ac(b2-6)GalNAc
Summary of the method: as §1

[16] = molecular target: Neu5Ac9Ac(a2-3)Gal(b1-3)GlcNAc
Summary of the method: as §1

[17] = molecular target: Neu5Ac9Ac(a2-3)Gal(b1-4)GlcNAc
Summary of the method: as §1

[18] = molecular target: Neu5Ac9Ac(a2-6)Gal(b1-4)GlcNAc
Summary of the method: as §1

[19] = molecular target: Neu5Gc(a2-3)Gal(b1-3)GlcNAc
Summary of the method: as §1

[20] = molecular target: Neu5Gc(a2-3)Gal(b1-3)[Fuc(a1-4)]GlcNAc
Summary of the method: as §1

[21] = molecular target: Neu5Gc(a2-3)Gal(b1-4)Glc
Summary of the method: as §1

[22] = molecular target: Neu5Gc(a2-3)Gal(b1-4)GlcNAc
Summary of the method: as §1

[23] = molecular target: Neu5Gc(a2-3)Gal(b1-4)GlcNAc(b1-3)Gal(b1-4)GlcNAc(b1-2)Man(a1-3)[Neu5Gc(a2-3)Gal(b1-4)GlcNAc(b1-3)Gal(b1-4)GlcNAc(b1-2)Man(a1-6)]Man(b1-4)GlcNAc(b1-4)GlcNAc
Summary of the method: as §1

[24] = molecular target: Neu5Gc(a2-3)Gal(b1-4)[Fuc(a1-3)]GlcNAc
Summary of the method: as §1

[25] = molecular target: Neu5Gc(a2-6)Gal(b1-4)GlcNAc
Summary of the method: as §1

[26] = molecular target: Neu5Gc(a2-6)GalNAc
Summary of the method: as §1

[27] = molecular target: Neu5Gc(a2-8)Neu5Ac(a2-3)Gal(b1-4)GlcNAc
Summary of the method: as §1

[28] = molecular target: Neu5Gc(a2-8)Neu5Gc(a2-3)Gal(b1-4)GlcNAc
Summary of the method: as §1

[29] = molecular target: Neu5Gc(a2-8)Neu5Gc(a2-3)Gal(b1-4)GlcNAc(b1-3)Gal(b1-4)GlcNAc
Summary of the method: as §1

[30] = molecular target: Neu5Gc(a2-8)Neu5Gc(a2-6)Gal(b1-4)GlcNAc
Summary of the method: as §1

[31] = molecular target: Neu5Gc(b2-6)Gal(b1-4)GlcNAc
Summary of the method: as §1

B1: SP16663B-bot-321-25-321 (Bacteroides ovatus) (protein)
chain: DDDDEVTMNSKFYLSTKVFPVDSYEASLSVILKDNSVVVNELQPNYRFVACATERLSKDVKITADSDDNLVSAYNKANDTEYNILPAENYSFTNKTVTIENGESVSGDSIKIELLNVGSLTTEGGYLLPVTISSIEGNNLDALSSNRGVVYLKIQNIHVNVESGQPAEGTLIADRSGWTVKVAPTTRGDAKNLIDGTNSDVARDGGAEYWLTVDIGKVQTLTGIRNKCYASSYSPTAVEVFTSSDGAKWKSIGAVTISKSGTQYIKFSKAVETRYLKYYVKQGPNTVSLTEFDLYAK
[1]
  glycan array binding signal (z-score): 0.1
[2]
  glycan array binding signal (z-score): -0.244
[3]
  glycan array binding signal (z-score): 0.929
[4]
  glycan array binding signal (z-score): 0.316
[5]
  glycan array binding signal (z-score): -0.054
[6]
  glycan array binding signal (z-score): 0.154
[7]
  glycan array binding signal (z-score): 0.071
[8]
  glycan array binding signal (z-score): 0.216
[9]
  glycan array binding signal (z-score): 0.516
[10]
  glycan array binding signal (z-score): -0.556
[11]
  glycan array binding signal (z-score): -0.535
[12]
  glycan array binding signal (z-score): -0.261
[13]
  glycan array binding signal (z-score): 0.003
[14]
  glycan array binding signal (z-score): -0.188
[15]
  glycan array binding signal (z-score): -0.878
[16]
  glycan array binding signal (z-score): 0.033
[17]
  glycan array binding signal (z-score): 0.4
[18]
  glycan array binding signal (z-score): -0.161
[19]
  glycan array binding signal (z-score): -0.305
[20]
  glycan array binding signal (z-score): -0.17
[21]
  glycan array binding signal (z-score): -0.241
[22]
  glycan array binding signal (z-score): -0.46
[23]
  glycan array binding signal (z-score): -0.142
[24]
  glycan array binding signal (z-score): -0.612
[25]
  glycan array binding signal (z-score): 0.696
[26]
  glycan array binding signal (z-score): 0.136
[27]
  glycan array binding signal (z-score): -0.244
[28]
  glycan array binding signal (z-score): 0.233
[29]
  glycan array binding signal (z-score): -0.671
[30]
  glycan array binding signal (z-score): -0.34
[31]
  glycan array binding signal (z-score): 0.159
